From PubChem BioAssay AID651820 (National Center for Advancing Translational Sciences (NCATS), 2012)
The whole screen tested about 340,000 compounds, of which about 12,000 (3.5%) were called active. The shares of active, inactive and inconclusive entries below differ from those in the screen. The call rests on the fitted dose curve; in most records, active means well fitted inhibition curve with a large enough effect; inconclusive means small, poorly fitted or top-dose-only effect, or another doubt; inactive means no such curve, though single readings can be large or run the other way. No potency is given beside an inconclusive call; the fits are too rough.

Assay: qHTS Assay for Inhibitors of Hepatitis C Virus (HCV)
Settings: Huh7.5.1 HCVcc-Cre (HCVcc is cell-culture hepatitis C virus) infection, luciferase reporter, 44 h; activity change, negative = inhibition: at 41.8 µM (top of the series) unless noted
Summary of the method: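 Luciferase read-out (15 sec integration) after a 15 min room-temperature substrate step quantifies HCVcc-Cre infection. Cells, 1,000 per well, had compound added 4 h post-plating, then virus at ~0.5 moi, and were cultured 44 h.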
On the % scale 0 is the no-effect control and ±100 the full control effect; potency means the concentration at half of the fitted maximal effect; tags describe the fitted curve by direction and shape.

| SMILES | Potency | activity change, negative = inhibition |
| --- | --- | --- |
| COCCN(C(=O)COC(=O)c1cc(C)n(-c2ccccc2)c1C)c1c(N)n(Cc2ccccc2)c(=O)[nH]c1=O | inconclusive [inhibitor, partial curve] |  |
| CCN(Cc1cc(OC)c(OC)c(OC)c1)C(=S)Nc1cccc(SC)c1 | inconclusive [inhibitor, single point] |  |
| Cc1ccc(NC(=O)Cn2c(O)c(N=NS(=O)(=O)c3ccc(C)cc3)c3ccccc32)cc1 |  | inactive: 4.91% |
| CCc1ccc(C(=O)Nc2ccc(C)c(NS(C)(=O)=O)c2)cc1 | inconclusive [inhibitor, full curve] |  |
| CCC(=O)C1CCCN(C(=O)CCc2nnc(-c3ccc4c(c3)OCO4)o2)C1 (stereo not given) |  | inactive: 6.54% |
| CCOc1ccc(CCNC(=O)CCC(=O)N2CCSc3ccccc32)cc1OCC | inconclusive [inhibitor, partial curve] |  |
| COc1ccccc1-c1ccc(SCc2ccccc2)nn1 | inconclusive [inhibitor, single point] |  |
| O=C(C[C@H]1C/C=C\CC[C@@H](Cc2ccc(F)cc2)C(=O)O[C@H](c2ccccc2)CNC1=O)N[C@H](CO)Cc1ccccc1 |  | inactive: 3.67% |
| CN1CCN(c2ccccc2NC(=O)c2sc3ccccc3c2Cl)CC1 | active: 12.6 µM |  |
| COc1cc(OC)cc(C(=O)NCCSCc2ccco2)c1 | inconclusive [inhibitor, single point] |  |
| O=C(NNC(=O)c1ccccn1)c1ccc(OC(F)F)cc1 | inconclusive [inhibitor, single point] |  |
| Cc1ccc(S(=O)(=O)N2CCCOC2CNC(=O)C(=O)NCCc2c[nH]c3ccccc23)cc1 (stereo not given) | inconclusive [inhibitor, single point] |  |
| COc1ccc(NC(=O)Nc2ccc3c(c2)CC(=O)N([C@H](C)CO)C[C@@H](C)[C@H](CN(C)C(=O)Nc2ccccc2)O3)cc1 | inconclusive [inhibitor, single point] |  |
| COC(=O)c1cccc(C(=O)N2CCCC(C(=O)c3ccccc3OC)C2)c1 (stereo not given) |  | inactive: -8.46% |
| O=C(N/N=C/c1cn(-c2ccccc2)nc1-c1cccnc1)c1ccc(F)cc1 | inconclusive [inhibitor, partial curve] |  |
| Cc1nc(SCc2nc3ccccc3[nH]2)c2oc3ccccc3c2n1 | active: 25.1 µM |  |
| CCOc1ccc(/C=N/n2cnnc2)cc1 |  | inactive: 4.28% |
| CCCCNc1c2c3c(cccc3n(C)c1=O)C(=O)c1ccccc1-2 | inconclusive [inhibitor, partial curve] |  |
| Cc1csc(N/N=C\c2cccnc2)n1 |  | inactive: -9.33% |
| COc1ccc(N2CC(C)Cn3c2nc2c3c(=O)[nH]c(=O)n2C)cc1 (stereo not given) | inconclusive [inhibitor, single point] |  |
| O=C(Nc1ccc(F)cc1)c1ccc(-n2ccnc2)nc1 |  | inactive: 5.71% |
| COc1ccc(-c2csc(NC(=O)c3ccoc3C)n2)cc1 | active: 11.2 µM |  |
| COc1cccc(C(=O)OCC(=O)N2CCc3ccccc3C2)c1OC | inconclusive [inhibitor, single point] |  |

| SMILES | Potency | activity change, negative = inhibition |
| --- | --- | --- |
| N#Cc1ccc(NC(=O)Nc2ccc(Cl)cc2)cc1 | inconclusive [inhibitor, single point] |  |
| Cc1ccc(Cn2c(C3CCCN3c3nc(-c4cc(Cl)c(N)c(Cl)c4)cs3)nc3cc(C(=O)NCCCO)ccc32)cc1 (stereo not given) | active: 1.41 µM |  |
| C=CCc1cc(Cl)ccc1OCCCn1ccnc1 | inconclusive [inhibitor, single point] |  |
| COc1cc(CNC(C)c2ccccc2)c(Br)cc1OCC(N)=O (stereo not given) |  | inactive: -7.03% |
| COc1cc2c(C#N)c(N3CCN(C)CC3)nc(N)c2c(N)n1 | inconclusive [inhibitor, partial curve] |  |
| CCC1CN(C(=O)N2CCC(C(=O)NCc3cccc(F)c3)CC2)c2ccccc2O1 (stereo not given) | inconclusive [inhibitor, partial curve, poor fit] |  |
| CCCNc1nc(-c2cc(-c3ccc(Cl)cc3)on2)cc(C(C)C)n1 |  | inactive: 14.9% |
| CC/C(O)=N\S(=O)(=O)c1ccc(N=NN(C)C)cc1 | inconclusive [inhibitor, single point] |  |
| Cc1cccc(C)c1OCc1cc(C(=O)NCc2cn(C)nc2C)no1 | inconclusive [inhibitor, partial curve, poor fit] |  |
| Nc1ncc(-c2ccccc2)c(-c2ccc(O)cc2O)n1 | inconclusive [inhibitor, single point] |  |
| COc1ccc(C)cc1NS(=O)(=O)c1ccccc1 |  | inactive: -6.93% |
| Cc1cc(C)c(C#N)c(SCC(=O)Nc2ccccc2C(N)=O)n1 | inconclusive [inhibitor, full curve, poor fit] |  |
| COc1ccc(C(=O)OC(COc2ccccc2)Cn2ccnc2)cc1 (stereo not given) | inconclusive [inhibitor, single point] |  |
| CC(C)OC(=O)c1cccnc1N1CCN(c2cccc(Cl)c2)CC1 | inconclusive [inhibitor, single point] |  |
| Cc1cc(C)cc(N(CCC#N)C(=O)COC(=O)C2=COCCO2)c1 | inconclusive [inhibitor, single point] |  |
| O=C(Cc1ccc(Cl)cc1)N/N=C1\CCCc2ccccc21 | inconclusive [inhibitor, partial curve, poor fit] |  |
| COCCn1c(CN(C)Cc2ccccc2)nc2c1c(=O)n(C)c(=O)n2C | inconclusive [inhibitor, single point] |  |
| O=C(NCC(=O)N(CCc1ccccc1)C(C(=O)NC1CCCCC1)c1ccncc1)c1ccco1 (stereo not given) |  | inactive: 1.41% |
| COCCNC(=O)C(=O)NCC1OCCN1S(=O)(=O)c1ccc(F)cc1 (stereo not given) |  | inactive: 21.1% |
| O=S(=O)(Nc1cc2nc3ccccc3nc2n1Cc1ccccc1)c1ccc(Cl)cc1 | inconclusive [inhibitor, single point] |  |
| CCCCCCCNC(=O)C1(CC2CC(c3ccc(Cl)cc3)=NO2)CCN(C(=O)c2cc(OCC)c(OCC)c(OCC)c2)CC1 (stereo not given) |  | inactive: -9.13% |
| CCC1CCCCN1C(=O)CSc1nc2ccsc2c(=O)n1Cc1ccccc1 (stereo not given) | inconclusive [inhibitor, partial curve, poor fit] |  |
